The campaign covered roughly 52,000 compounds. About 1,700 (3.3%) were called active. No stated cut-off is given here; in the data, active means survival mostly below about 52% (no sharp cut-off); inactive means mostly above about 56%. Some of the results follow.

This experiment relates to Wild type. As to the kind of experiment: S. aureus survival, RN4220 and DeltatarO strains – OD600, teichoic acid synthesis inhibitors, primary screen (AID 463173). As to conditions: S. aureus RN4220 wild type/DeltatarO growth, OD600, 18 h, active compounds read low, screened at 18.75 µg/mL (by protocol).
For the compound `O=c1cccc2n1CC1CC(C2)N(c2nc(N3CCCCC3)nc(N3CCCCC3)n2)C1` (centres undefined), the survival is inactive: 104%.

In the case of `COc1ccc(OCC2CNC(=O)O2)cc1` (centres undefined), the survival is inactive: 111%. In the case of `CC(C)(N)COc1nonc1N` it was inactive: 111%. In the case of `O=C(Cc1cccs1)N(c1nnc(-c2ccc(F)cc2)s1)C1CCCC1`, the survival is inactive: 114%. In the case of `O=C(CN1CCN(c2ccc(F)cc2)CC1)N1CCCC1` it was inactive: 97%; in that of `COc1ccc(OC)c(-n2nnc(-c3nc(-c4cc(OC)c(OC)c(OC)c4)no3)c2C)c1`, inactive: 84%; in that of `c1cnc(N2CCN(c3ncc4c(n3)CCNC4)CC2)nc1`, inactive: 127%. As for `COc1ccc(-c2nc3ccccc3n3c(-c4ccccc4)c4c(=O)n(C)c(=O)n(C)c4c23)cc1OC`, the figure is inactive: 70%; as for `O=c1oc2c3c(ccc2c2ccccc12)OCN(Cc1ccc(Cl)cc1)C3`, inactive: 82%; as for `COc1cc2c(cc1OC)C(COc1ccc3c(C)cc(=O)oc3c1)N(C(=O)c1ccccc1C)CC2` (centres undefined), inactive: 131%. In the case of `COc1ccc(N2CCN(C(=O)c3cccc4ccccc34)CC2)cc1` it was inactive: 109%; in that of `COc1ccc(-n2nnnc2C2CCN(S(=O)(=O)c3ccc(C)cc3)CC2)cc1`, inactive: 119%; in that of `COCCn1c(=O)[nH]c2cc(C(=O)N3CCN(c4ccccc4)CC3)ccc2c1=O`, inactive: 69%. As to `CC(=O)N1c2ccccc2C(C)(c2ccc(C)cc2)CC1(C)C` (centres undefined), the survival was active: -2%.

Regarding `O=C(NCc1ccccc1)c1cccn1-c1nnc(N2CCCC2)s1`, the survival was inactive: 47%. In the case of `CN1C(=O)c2ccccc2Sc2ccc(NC(=O)N3CCN(c4ccccc4)CC3)cc21` it was inactive: 113%; in that of `CC(=O)N1CCc2cc(S(=O)(=O)NC(Cc3ccccc3)C(=O)Nc3cc(C)ccc3C)ccc21` (centres undefined), inactive: 72%.

For the compound `CCOc1ccc2nc(NCCCNC(=O)C3CCCO3)c(C#N)cc2c1` (centres undefined), the survival is inactive: 105%.

Regarding `CCOc1ccc(CNC(=O)c2nn(-c3ccc(OC)cc3)c(=O)c3c2c2ccccc2n3C)cc1`, the survival was inactive: 125%.

As for `Cc1ccc(-c2ccc(CCC(=O)O)n2-c2ccc(C(N)=O)cc2)cc1`, the survival was inactive: 86%. As for `NC(=O)CSc1ncc2c(n1)-c1ccccc1N(Cc1ccc(F)cc1)S2(=O)=O`, the figure is inactive: 83%; as for `CCOc1ccc(C(=O)Nc2ccc3nc(SCC(=O)N4CCc5ccccc54)sc3c2)cc1`, inactive: 77%; as for `CC1=C(c2ccc(C)cc2)S(=O)(=O)N(Cc2ccc(C(=O)Nc3ccc(C)c(F)c3)cc2)C1=O`, inactive: 83%. As for `COc1ccc(-c2cc3ccc(O)c(CN4CCCC4)c3oc2=O)cc1`, the figure is inactive: 124%; as for `Cc1ccc(-c2c(C(=O)NCCc3ccccc3)oc(=O)c3ccccc23)cc1`, inactive: 79%; as for `COc1ccc(-c2n[nH]c3c2cnc2ccc(F)cc23)cc1`, inactive: 131%. In the case of `CCCSc1nc(-c2ccccc2)[nH]c1S(=O)(=O)c1ccc(C)cc1` it was inactive: 55%; in that of `Cc1cc(C)c2oc(-c3ccc(Cl)c(NC(=O)c4cccs4)c3)nc2c1`, inactive: 63%; in that of `CCn1cc(C(=O)NCCCOC)c(=O)c2cc(S(=O)(=O)N3CCc4ccccc4C3)ccc21`, inactive: 78%. Take `COc1ccccc1NC(=O)c1cnc(SCC(=O)N2CCOCC2)n(C)c1=O`: the survival was inactive: 77%. In the case of `N#C/C(=C\c1ccc(-c2cccc(Cl)c2)o1)C(N)=O` it was inactive: 114%. In the case of `COc1ccc2c(c1)c1c(c(=O)n(Cc3ccccc3)c(=O)n1Cc1cccc(Cl)c1)n2C` it was inactive: 99%; in that of `Cc1cc(C)cc(NC(=O)C2CCN(S(=O)(=O)c3cn(C)cn3)CC2)c1`, inactive: 73%; in that of `O=c1oc2ccc3ccccc3c2cc1-c1nnc(Nc2ccccc2F)s1`, inactive: 76%. Take `CCOC(=O)C1CCCN(CC(=O)Nc2cc(C)c3c(=O)oc4ccccc4c3n2)C1` (centres undefined): the survival was inactive: 81%. As for `CCc1cccc(C)c1NC(=O)Cn1nnc(-c2nc(-c3ccccc3F)no2)c1N`, the figure is inactive: 99%; as for `Cc1cc2c(cc1NS(=O)(=O)c1cccc(C#N)c1)n(C)c(=O)c(=O)n2C`, inactive: 81%. As for `CCCOc1ccc(C2C(=O)N(C3CCC(C)CC3)CC(=O)N2Cc2cccc(OC)c2)cc1OC` (centres undefined), the survival was inactive: 81%. As for `Cn1cc(S(=O)(=O)N2CCCCCC2)cc1C(=O)Nc1ccc(Cl)c(C(F)(F)F)c1`, the figure is inactive: 60%. As for `COc1ccc(NS(=O)(=O)c2cc3c(cc2C)N(C(C)=O)CCO3)cc1`, the figure is inactive: 93%; as for `CC1=Nc2cc(C(=O)N3CCC(C)CC3)ccc2Sc2ccc(Cl)cc21`, inactive: 81%. In the case of `COc1ccc(NC(=O)CS(=O)CC(=O)Nc2ccc(NC(C)=O)cc2)cc1` (centres undefined) it was inactive: 105%; in that of `Cc1ccc2c(c1)nnn2C1CCN(C(=O)N(c2ccccc2)c2ccccc2)CC1`, inactive: 112%. Take `O=C(CSc1nnnn1C1CCCC1)NCc1cccs1`: the survival is inactive: 107%. In the case of `CCc1ccc(NC(=O)C2CCCN2S(=O)(=O)c2ccc3c(c2)CCCC(=O)N3)cc1` (centres undefined) it was inactive: 73%. `COc1ccc(CCNC(=O)c2ccc(Cn3c(=O)c4ccccc4n(Cc4cccc(F)c4)c3=O)cc2)cc1OC`: the survival is inactive: 74%. For `Cc1oc2c(c1C(=O)Nc1ccc(OC(F)(F)F)cc1)C1=NCCN1C=N2`, the survival was inactive: 89%. As for `CC(CC(=O)NCc1cccnc1)c1ccccc1` (centres undefined), the figure is inactive: 115%. In the case of `CCc1ccc(NC(=O)CCc2c(C)nn(-c3ccc(N4CCCC4)nn3)c2C)cc1` it was inactive: 72%.

In the case of `COc1nc(N)c(C#N)c(-c2ccc(C)cc2)c1C#N`, the survival was inactive: 121%. For `Oc1ccc2ccccc2c1/C=N/c1nccs1`, the survival is inactive: 106%. In the case of `O=C(O)C1CC=CCC1Cc1ccccc1` (centres undefined) it was inactive: 95%; in that of `COc1ccc(NS(=O)(=O)c2cnc(N)nc2)cc1Cl`, inactive: 63%; in that of `O=C(COc1ccc2oc3c(c2c1)CCCC3)Nc1ccccn1`, inactive: 110%. As for `CC(=O)c1ccc(Oc2ncnc3c2oc2ccccc23)cc1`, the figure is inactive: 128%; as for `Cc1cc(=O)[nH]c2nnc(SCC(N)=O)n12`, inactive: 66%. In the case of `COc1ccc(C(=O)c2c(N)c(C(=O)Nc3ccccc3Cl)c3ccccn23)cc1` it was inactive: 87%.

On to `O=C(COc1ccc2oc3c(c2c1)CCCC3)Nc1cccc(Br)c1`, for which the survival is inactive: 31%. As for `COc1cccc(CN2CCC(C(=O)N3CCCC(C)C3)CC2)c1` (centres undefined), the figure is inactive: 110%.

The values above are taken from PubChem BioAssay AID463173 (ICCB-Longwood Screening Facility, Harvard Medical School, 2010).
